From patent US6254870, “Thrombopoietin: IL-3 fusion protein” (G. D. Searle & Co., dated 2001)

Target: human c-mpl-R (human, UniProt P40238)
Assay: cell-based or functional assay

B1: […] c-mpl ligand K(122)E (pMON26451-1) (ligand)
chain: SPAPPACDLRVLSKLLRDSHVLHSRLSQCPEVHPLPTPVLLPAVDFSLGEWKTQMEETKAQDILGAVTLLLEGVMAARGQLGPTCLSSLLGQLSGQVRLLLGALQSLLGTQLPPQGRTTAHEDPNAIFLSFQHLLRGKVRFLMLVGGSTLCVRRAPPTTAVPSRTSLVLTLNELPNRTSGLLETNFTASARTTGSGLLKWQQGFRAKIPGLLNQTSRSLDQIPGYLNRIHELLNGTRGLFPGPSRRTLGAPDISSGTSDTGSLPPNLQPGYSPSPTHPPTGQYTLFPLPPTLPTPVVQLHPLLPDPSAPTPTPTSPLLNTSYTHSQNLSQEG
- TF1 Proliferation Assay: total counts tritiated thymidine incorporation, 10% supernatants: 134000 total counts
